# Measured values: the supplement of paper PMC8728848
# Some of the results follow.
# Tests used:
# Assay in all cases: glycan array binding signal (z-score within array); higher = stronger binding
# Conditions in all cases: glycan notation: IUPAC condensed, linker removed
# GalNAc(b1-4)GlcNAc = target: GalNAc(b1-4)GlcNAc
# How it was run: (§1)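 Glycan array binding is given as a within-array Z-score, which can be read as non-binding when negative. The arrays, 3228 of them, came from the Consortium for Functional Glycomics database and were retained only where the protein sequence was available. Z-scores were averaged across arrays of the same protein sequence at different concentrations or buffers and across linkers.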
# [1] = target: GalNAc(b1-4)GlcNAc(b1-2)Man
# How it was run: as §1
# [2] = target: GalNAc(b1-4)GlcNAc(b1-2)Man(a1-3)[GalNAc(b1-4)GlcNAc(b1-2)Man(a1-6)]Man(b1-4)GlcNAc(b1-4)GlcNAc
# How it was run: as §1
# [3] = target: GalNAc(b1-4)GlcNAc(b1-3)GalNAc(b1-4)GlcNAc
# How it was run: as §1
# GalNAc(b1-4)GlcNAc6S = target: GalNAc(b1-4)GlcNAc6S
# How it was run: as §1
# GalNAc(b1-6)GalNAc = target: GalNAc(b1-6)GalNAc
# How it was run: as §1
# GalNAc3S(b1-4)GlcNAc = target: GalNAc3S(b1-4)GlcNAc
# How it was run: as §1
# GalNAc3S(b1-4)GlcNAc3S = target: GalNAc3S(b1-4)GlcNAc3S
# How it was run: as §1
# [4] = target: GalNAc3S(b1-4)[Fuc(a1-3)]GlcNAc
# How it was run: as §1
# GalNAc4S6S(b1-4)GlcNAc = target: GalNAc4S6S(b1-4)GlcNAc
# How it was run: as §1
# GalNAc6S(b1-4)GlcNAc = target: GalNAc6S(b1-4)GlcNAc
# How it was run: as §1
# Glc(a1-4)Glc = target: Glc(a1-4)Glc
# How it was run: as §1
# [5] = target: Glc(a1-4)Glc(a1-4)Glc(a1-4)Glc
# How it was run: as §1
# Glc(a1-6)Glc(a1-6)Glc = target: Glc(a1-6)Glc(a1-6)Glc
# How it was run: as §1
# [6] = target: Glc(a1-6)Glc(a1-6)Glc(a1-6)Glc
# How it was run: as §1
# Glc(b1-4)Glc = target: Glc(b1-4)Glc
# How it was run: as §1
# Glc(b1-6)Glc = target: Glc(b1-6)Glc
# How it was run: as §1
# GlcA(b1-3)Gal = target: GlcA(b1-3)Gal
# How it was run: as §1
# GlcA(b1-3)GlcNAc = target: GlcA(b1-3)GlcNAc
# How it was run: as §1
# GlcA(b1-6)Gal = target: GlcA(b1-6)Gal
# How it was run: as §1
# [7] = target: GlcA3S(b1-3)Gal(b1-4)GlcNAc(b1-2)Man
# How it was run: as §1
# [8] = target: GlcA3S(b1-3)Gal(b1-4)GlcNAc(b1-3)Gal(b1-4)Glc
# How it was run: as §1
# [9] = target: GlcNAc(a1-3)Gal(b1-4)GlcNAc
# How it was run: as §1
# [10] = target: GlcNAc(a1-4)Gal(b1-3)GlcNAc
# How it was run: as §1
# [11] = target: GlcNAc(a1-4)Gal(b1-4)GalNAc
# How it was run: as §1
# [12] = target: GlcNAc(a1-4)Gal(b1-4)GlcNAc
# How it was run: as §1
# [13] = target: GlcNAc(a1-4)Gal(b1-4)GlcNAc(b1-3)Gal(b1-4)Glc
# How it was run: as §1
# [14] = target: GlcNAc(a1-4)Gal(b1-4)GlcNAc(b1-3)Gal(b1-4)GlcNAc
# How it was run: as §1
# [15] = target: GlcNAc(a1-4)Gal(b1-4)GlcNAc(b1-3)Gal(b1-4)GlcNAc(b1-3)Gal(b1-4)GlcNAc
# How it was run: as §1
# [16] = target: GlcNAc(a1-4)Gal(b1-4)GlcNAc(b1-3)Gal(b1-4)[Fuc(a1-3)]GlcNAc(b1-3)Gal(b1-4)[Fuc(a1-3)]GlcNAc
# How it was run: as §1
# [17] = target: GlcNAc(a1-6)Gal(b1-4)GlcNAc
# How it was run: as §1
# [18] = target: GlcNAc(b1-2)Gal(b1-3)GalNAc
# How it was run: as §1
# [19] = target: GlcNAc(b1-2)Man(a1-3)[GlcNAc(b1-2)Man(a1-6)]Man(b1-4)GlcNAc(b1-4)GlcNAc
# How it was run: as §1
# [20] = target: GlcNAc(b1-2)Man(a1-3)[GlcNAc(b1-2)Man(a1-6)]Man(b1-4)GlcNAc(b1-4)[Fuc(a1-6)]GlcNAc
# How it was run: as §1
# [21] = target: GlcNAc(b1-2)Man(a1-3)[GlcNAc(b1-4)][GlcNAc(b1-2)Man(a1-6)]Man(b1-4)GlcNAc(b1-4)GlcNAc
# How it was run: as §1
# [22] = target: GlcNAc(b1-2)Man(a1-3)[GlcNAc(b1-4)][GlcNAc(b1-2)Man(a1-6)]Man(b1-4)GlcNAc(b1-4)[Fuc(a1-6)]GlcNAc
# How it was run: as §1
# [23] = target: GlcNAc(b1-2)[GlcNAc(b1-4)]Man(a1-3)[GlcNAc(b1-2)Man(a1-6)]Man(b1-4)GlcNAc(b1-4)GlcNAc
# How it was run: as §1
binder,measurement,setting,value
"SGC, Q9M345 (protein) QNLNFTYNGFHPPLTDISLQGLATVTPNGLLKLTNTSVQKTGHAFCTERIRFKDSQNGNVSSFSTTFVFAIHSQIPTLSGHGIAFVVAPTLGLPFALPSQYIGLFNISNNGNDTNHIFAVEFDTIQSSEFGDPNDNHVGIDLNGLRSANYSTAGYRDDHDKFQNLSLISRKRIQVWIDYDNRSHRIDVTVAPFDSDKPRKPLVSYVRDLSSILLEDMYVGFSSATGSVLSEHFLVGWSFRLNGEAPMLSLSKLPKLPRFEPRRIS",glycan array binding signal (z-score),GalNAc(b1-4)GlcNAc,-0.318
same,glycan array binding signal (z-score),[1],0.403
same,glycan array binding signal (z-score),[2],0.275
same,glycan array binding signal (z-score),[3],-0.359
same,glycan array binding signal (z-score),GalNAc(b1-4)GlcNAc6S,-0.302
same,glycan array binding signal (z-score),GalNAc(b1-6)GalNAc,-0.268
same,glycan array binding signal (z-score),GalNAc3S(b1-4)GlcNAc,-0.38
same,glycan array binding signal (z-score),GalNAc3S(b1-4)GlcNAc3S,-0.349
same,glycan array binding signal (z-score),[4],-0.39
same,glycan array binding signal (z-score),GalNAc4S6S(b1-4)GlcNAc,-0.389
same,glycan array binding signal (z-score),GalNAc6S(b1-4)GlcNAc,-0.117
same,glycan array binding signal (z-score),Glc(a1-4)Glc,-0.339
same,glycan array binding signal (z-score),[5],-0.345
same,glycan array binding signal (z-score),Glc(a1-6)Glc(a1-6)Glc,-0.308
same,glycan array binding signal (z-score),[6],-0.311
same,glycan array binding signal (z-score),Glc(b1-4)Glc,-0.353
same,glycan array binding signal (z-score),Glc(b1-6)Glc,-0.344
same,glycan array binding signal (z-score),GlcA(b1-3)Gal,-0.207
same,glycan array binding signal (z-score),GlcA(b1-3)GlcNAc,-0.369
same,glycan array binding signal (z-score),GlcA(b1-6)Gal,-0.295
same,glycan array binding signal (z-score),[7],-0.501
same,glycan array binding signal (z-score),[8],-0.383
same,glycan array binding signal (z-score),[9],-0.387
same,glycan array binding signal (z-score),[10],-0.386
same,glycan array binding signal (z-score),[11],-0.324
same,glycan array binding signal (z-score),[12],-0.317
same,glycan array binding signal (z-score),[13],-0.322
same,glycan array binding signal (z-score),[14],-0.416
same,glycan array binding signal (z-score),[15],-0.351
same,glycan array binding signal (z-score),[16],-0.321
same,glycan array binding signal (z-score),[17],-0.344
same,glycan array binding signal (z-score),[18],-0.402
same,glycan array binding signal (z-score),[19],-0.307
same,glycan array binding signal (z-score),[20],-0.322
same,glycan array binding signal (z-score),[21],-0.37
same,glycan array binding signal (z-score),[22],-0.379
same,glycan array binding signal (z-score),[23],-0.367
